The record followed here is PubChem BioAssay AID1963576 (National Center for Advancing Translational Sciences (NCATS), 2024).

Hit rate of the full screen: of about 46,000 compounds, about 60 (0.1%) were called active. Another 3% or so got no clear call; they are omitted. Calls come from the whole dose curve; as a rule, active = well fitted inhibition curve with a large enough effect; inconclusive = small, poorly fitted or top-dose-only effect; inactive = no such curve, though single readings can be large or run the other way. This is one part of the list.

This experiment in a line: Primary qHTS assay for Inhibitors of ovarian cancer metastasis using an organotypic tumor microenvironment (TME) model.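 For activity change, negative = inhibition: plate controls were DMSO wells for no effect and tomatine positive control wells for full effect.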 Note: nearly all actives have a fitted effect of over 65% in size. The note with it: SKOV3ip1-GFP adhesion/invasion on 3D omental model, fluorescence; series mostly up to 45.8 µM; activity change, negative = inhibition: at the top concentration. In outline: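 qHTS, 4-pt dose (0.36-46 umol/L); SKOV3ip1-GFP, 1,200 cells/well, no FBS; primary omental fibroblast/mesothelial co-culture 48 h pre-grown; 2 h RT + 16 h 37 C; PBS wash, 4% PFA; GFP count 488/509 nm.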
Background: qHTS replaces the single test concentration by a dilution series.
For the compound `CC(=O)N1CCc2c(sc3nc(SCC(N)=O)n(-c4ccc(F)c(Cl)c4)c(=O)c23)C1`, the “activity change, negative = inhibition” value was inactive: -1.31%. In the case of `Cc1ccc(CN2CCSc3ccc(C(=O)Nc4cc(C)cc(C)c4)cc32)cc1`, the “activity change, negative = inhibition” value was inactive: 4.29%.

Turning to `CN(C(=O)CSc1nnc(-c2ccc([N+](=O)[O-])cc2)o1)C1CCCCC1`, the “activity change, negative = inhibition” value is inactive: -23.1%. In the case of `COc1ccc(-c2nc3scc(CCNS(=O)(=O)c4cc(F)ccc4OC)n3n2)cc1OC`, the compound was classed as inactive. Consider `COc1ccc(CCNC(=O)Cn2c(=O)cc(C(F)(F)F)c3c(C)nn(C)c32)cc1OC`, for which the “activity change, negative = inhibition” value is inactive: 1.32%. Turning to `Clc1ccc(Nc2c(-c3cccs3)nc3ccc(Cl)cn23)cc1`, the “activity change, negative = inhibition” value is inactive: -26%. Regarding `Cc1ccc(Cl)cc1NC(=O)c1sc2nc(-c3ccccc3)cn2c1C`, the “activity change, negative = inhibition” value is inactive: 15.9%. In the case of `COc1ccccc1NC(=O)C1=C(C)Nc2nc(SCc3ccccc3F)nn2C1c1cccnc1` (configuration not stated), the call was inactive.

As to `CC(=O)c1cccc(NC(=O)CSc2nnc3ccc(-c4ccc(Cl)cc4)nn23)c1`, the “activity change, negative = inhibition” value is inactive: 2.84%. Regarding `COc1ccc(CN(C)S(=O)(=O)c2nnc(NC(=O)C(C)C)s2)cc1OC`, the “activity change, negative = inhibition” value is inactive: -13.3%. For `Cc1ccc(C)c(CSC2=NC(C)(C)Nc3ccccc32)c1`, the result was inactive. As for `CCOC(=O)c1sc2nc(C)n(CC(=O)Nc3cccc(Cl)c3)c(=O)c2c1C`, the “activity change, negative = inhibition” value is inactive: -1.99%. Take `CCc1cccc(NC(=O)c2cc3c(=O)[nH]c4ccccc4c3n2C)c1`: the “activity change, negative = inhibition” value is inactive: -12.8%. Turning to `CC(C)CN(CC(C)C)c1nc(-c2ccc(Cl)cc2)nc2ccccc12`, the outcome was inactive. Turning to `C=CCc1c(C)nc2nc(SCC(=O)Nc3cccc(Cl)c3)nn2c1C`, the “activity change, negative = inhibition” value was inactive: -28.3%. Turning to `O=C(CCS(=O)(=O)c1ccccc1)N(Cc1cccnc1)c1nc2c(Cl)cccc2s1`, the “activity change, negative = inhibition” value was inactive: 2.88%.

As for `O=C(Nc1ccccc1C(=O)OCc1cc(=O)n2c3c(sc2n1)CCCC3)c1ccccc1`, the compound was called inactive.

`CCc1ccc(NC(=O)c2ccc3c(=O)n4nc(Nc5ccccc5C)sc4nc3c2)cc1`: the “activity change, negative = inhibition” value was inactive: -18.6%.

Consider `COc1ccc(Cl)cc1NC(=O)Cn1c(=O)n(Cc2nc(C)no2)c(=O)c2ccccc21`, for which the “activity change, negative = inhibition” value is inactive: 17.6%. Turning to `O=C(NCCCN1CCN(c2ccc(F)cc2)CC1)C1COc2ccccc2C1` (configuration not stated), the “activity change, negative = inhibition” value is inactive: 6.71%. Take `Cc1c(Cl)cccc1NC(=O)c1ccc2c(c1)nnn2C1CCCC1`: the “activity change, negative = inhibition” value is inactive: -14.8%.

On to `CCOC(=O)c1c(C)oc2nc(C)nc(N(CC(C)C)CC(C)C)c12`, for which the “activity change, negative = inhibition” value was inactive: -6.8%.

For `CN(C)C(=O)c1ccc(NC(=O)Cn2nc(-c3ccccc3)c3ccccc3c2=O)cc1`, the “activity change, negative = inhibition” value was inactive: -4.71%. Consider `CCOC(=O)c1cccc(NS(=O)(=O)c2cc(-c3cnc(C)o3)ccc2OC)c1`, for which the “activity change, negative = inhibition” value was inactive: 5.74%. With `CCCOc1ccc(C2C(=O)N(C3CCCCC3)CC(=O)N2CCc2ccccc2)cc1OC` (configuration not stated), the “activity change, negative = inhibition” value was inactive: -9.32%. Take `Clc1cccc(-n2ncc3c(NCCc4ccccc4)ncnc32)c1`: the “activity change, negative = inhibition” value is inactive: 3.89%. Consider `COc1ccccc1N1CCN(C(CNC(=O)C(=O)NCCN(C)C)c2cccnc2)CC1` (configuration not stated), for which the “activity change, negative = inhibition” value was inactive: 11.6%. Turning to `COc1cccc(CN2CCc3nc(Nc4ccc5c(c4)OCCO5)ncc3C2)c1OC`, the “activity change, negative = inhibition” value was inactive: 10.7%. With `CC(=O)Nc1ccc(OCc2cc(=O)n3ccccc3n2)cc1`, the “activity change, negative = inhibition” value was inactive: 2.15%. Regarding `CCCCNC(=O)C(CC)Sc1nnc(-c2ccc(F)cc2)c(-c2ccc(F)cc2)n1` (configuration not stated), the outcome was inactive.

For the compound `Cc1cccc(NC(=O)c2c(NC(=O)c3cccs3)sc3c2CCC(C)C3)c1` (configuration not stated), the “activity change, negative = inhibition” value is inactive: 14.5%. Turning to `CCOC(=O)c1c(NC(=O)COc2cc(C)ccc2C(C)C)sc2c1CCCC2`, the “activity change, negative = inhibition” value was inactive: -0.94%.

As for `Cc1cccc(NC(=O)CSc2nc(=O)n(Cc3ccncc3)c3c2CCC3)c1C`, the “activity change, negative = inhibition” value is inactive: 1.41%. Same read-out and setting: with `CCOc1ccc(NC(=O)c2cc(=O)c3cc(CC)ccc3o2)cc1` the figure was inactive: 2.84%; with `Cc1ccc(-c2noc(-c3ccccc3NC(=O)C3CC(=O)N(c4cccc(C)c4)C3)n2)cc1` (configuration not stated), inactive: -0.41%. Same read-out and setting: with `Oc1ccc(/C=C/c2nc(-c3ccccc3O)n(-c3ccccc3)n2)c(O)c1` the figure was inactive: -6.24%; with `CCOc1ccc(NC(=O)CSc2nc(-c3cccs3)cc(C(F)(F)F)c2C#N)cc1`, inactive: 4.37%. On to `CCc1ccc(C2=C(C)C(N3CCC(C(=O)Nc4cccc(OC)c4)CC3)=NS2(=O)=O)cc1`, for which the “activity change, negative = inhibition” value was inactive: -20.9%. Regarding `Cc1ccc(NC(=O)C2CCN(S(=O)(=O)c3ccc4c(c3)CCCC(=O)N4)CC2)c(Cl)c1`, the “activity change, negative = inhibition” value was inactive: 39.7%. In the case of `CCc1ccccc1NC(=O)Cn1nnc(-c2nc(-c3ccncc3)no2)c1N`, the compound was called inactive. As for `COc1cc(NS(=O)(=O)c2ccc3c(c2)CC(=O)N3)cc(OC)c1OC`, the “activity change, negative = inhibition” value was inactive: 13.5%.

With `COc1ccccc1NC(=O)CSC1=Nc2ccccc2C2=NC(CC(=O)NCCc3ccccc3)C(=O)N12` (configuration not stated), the “activity change, negative = inhibition” value was inactive: -9.14%.

For `CCOc1ccc(Nc2c(S(=O)(=O)c3ccc(C)cc3)cnc3cc(OC)c(OC)cc23)cc1`, the “activity change, negative = inhibition” value is inactive: -22%.

For `COc1ccc(CCNC(=O)c2ccc3c(c2)sc2nc(-c4ccc(C)cc4)cn23)cc1OC`, the “activity change, negative = inhibition” value was inactive: 9.43%. On to `COc1cccc2c1Oc1ncccc1N(c1ccc(C(=O)NCc3ccccc3C)s1)C2`, for which the “activity change, negative = inhibition” value was inactive: 3.52%. Consider `Cc1ccc(NC(=O)c2c(C)oc3ncn(C)c(=O)c23)cc1F`, for which the “activity change, negative = inhibition” value was inactive: 12.6%. On the same count and under the same terms, the value for `CCCCC(=O)Nc1ccc2nc(SCC(=O)N3CCOCC3)sc2c1` was inactive: 4.91%.
